From article PMC9911399, “Two distinct binding modes provide the RNA-binding protein RbFox with extraordinary sequence specificity” come the findings set out here.

To fix the notation:
T1: RBFOX1 RRM RbFoxmut (Fox-RRM*) (Homo sapiens, UniProt Q9NWB1 109-208, R118D;E147R;N151S;E152T)
T1 sequence: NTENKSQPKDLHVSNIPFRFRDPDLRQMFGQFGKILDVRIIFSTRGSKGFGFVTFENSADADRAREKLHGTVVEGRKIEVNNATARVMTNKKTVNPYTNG

B1: AGACGUU (DNA:RNA)
RNA: GGGAGACCGGAAUUCAGAUUGUCCAGACGUUUUAAAUCCCGUCGUAGCCACCA
DNA 1: CAATCTGAATTCCGGTCTCCC
DNA 2: TGGTGGCTACGACGGGATT
B2: AUAUUGU (DNA:RNA)
RNA: B1 RNA with G26U, C28U, G29U, U30G
DNA 1: CAATCTGAATTCCGGTCTCCC
DNA 2: TGGTGGCTACGACGGGATT
B3: ACUAGUG (DNA:RNA)
RNA: B1 RNA with G26C, A27U, C28A, U31G
DNA 1: CAATCTGAATTCCGGTCTCCC
DNA 2: TGGTGGCTACGACGGGATT
B4: GUCAGUA (DNA:RNA)
RNA: B1 RNA with A25G, G26U, A27C, C28A, U31A
DNA 1: CAATCTGAATTCCGGTCTCCC
DNA 2: TGGTGGCTACGACGGGATT
B5: CGUAGCG (DNA:RNA)
RNA: B1 RNA with A25C, A27U, C28A, U30C, U31G
DNA 1: CAATCTGAATTCCGGTCTCCC
DNA 2: TGGTGGCTACGACGGGATT
B6: CUUUCCC (DNA:RNA)
RNA: GGGAGACCGGAAUUCAGAUUGUCCCUUUCCCUUAAAUCCCGUCGUAGCCACCA
DNA 1: CAATCTGAATTCCGGTCTCCC
DNA 2: TGGTGGCTACGACGGGATT
B7: CGGGAAA (DNA:RNA)
RNA: B1 RNA with A25C, A27G, C28G, G29A, U30A, U31A
DNA 1: CAATCTGAATTCCGGTCTCCC
DNA 2: TGGTGGCTACGACGGGATT
B8: CUUUUCU (DNA:RNA)
RNA: B6 RNA with C29U, C31U
DNA 1: CAATCTGAATTCCGGTCTCCC
DNA 2: TGGTGGCTACGACGGGATT
B9: UUCAUAC (DNA:RNA)
RNA: B6 RNA with C25U, U27C, U28A, C29U, C30A
DNA 1: CAATCTGAATTCCGGTCTCCC
DNA 2: TGGTGGCTACGACGGGATT
B10: CCAGUGA (DNA:RNA)
RNA: B1 RNA with A25C, G26C, C28G, G29U, U30G, U31A
DNA 1: CAATCTGAATTCCGGTCTCCC
DNA 2: TGGTGGCTACGACGGGATT
B11: AAGAUAA (DNA:RNA)
RNA: B1 RNA with G26A, A27G, C28A, G29U, U30A, U31A
DNA 1: CAATCTGAATTCCGGTCTCCC
DNA 2: TGGTGGCTACGACGGGATT
B12: GACUUCA (DNA:RNA)
RNA: B6 RNA with C25G, U26A, U27C, C29U, C31A
DNA 1: CAATCTGAATTCCGGTCTCCC
DNA 2: TGGTGGCTACGACGGGATT
B13: UUUAAGG (DNA:RNA)
RNA: B6 RNA with C25U, U28A, C29A, C30G, C31G
DNA 1: CAATCTGAATTCCGGTCTCCC
DNA 2: TGGTGGCTACGACGGGATT
B14: AGCUUAG (DNA:RNA)
RNA: B1 RNA with A27C, C28U, G29U, U30A, U31G
DNA 1: CAATCTGAATTCCGGTCTCCC
DNA 2: TGGTGGCTACGACGGGATT
B15: UUAGCAG (DNA:RNA)
RNA: B6 RNA with C25U, U27A, U28G, C30A, C31G
DNA 1: CAATCTGAATTCCGGTCTCCC
DNA 2: TGGTGGCTACGACGGGATT
B16: UGACCGA (DNA:RNA)
RNA: B1 RNA with A25U, G29C, U30G, U31A
DNA 1: CAATCTGAATTCCGGTCTCCC
DNA 2: TGGTGGCTACGACGGGATT
B17: CUUGCCU (DNA:RNA)
RNA: B6 RNA with U28G, C31U
DNA 1: CAATCTGAATTCCGGTCTCCC
DNA 2: TGGTGGCTACGACGGGATT
B18: UCCUAUC (DNA:RNA)
RNA: B6 RNA with C25U, U26C, U27C, C29A, C30U
DNA 1: CAATCTGAATTCCGGTCTCCC
DNA 2: TGGTGGCTACGACGGGATT
B19: GCUGAUG (DNA:RNA)
RNA: B1 RNA with A25G, G26C, A27U, C28G, G29A, U31G
DNA 1: CAATCTGAATTCCGGTCTCCC
DNA 2: TGGTGGCTACGACGGGATT
B20: AAGGCUG (DNA:RNA)
RNA: B1 RNA with G26A, A27G, C28G, G29C, U31G
DNA 1: CAATCTGAATTCCGGTCTCCC
DNA 2: TGGTGGCTACGACGGGATT
B21: UACUGGA (DNA:RNA)
RNA: B1 RNA with A25U, G26A, A27C, C28U, U30G, U31A
DNA 1: CAATCTGAATTCCGGTCTCCC
DNA 2: TGGTGGCTACGACGGGATT
B22: UAUUGCA (DNA:RNA)
RNA: B6 RNA with C25U, U26A, C29G, C31A
DNA 1: CAATCTGAATTCCGGTCTCCC
DNA 2: TGGTGGCTACGACGGGATT
B23: CUCCGUA (DNA:RNA)
RNA: B1 RNA with A25C, G26U, A27C, U31A
DNA 1: CAATCTGAATTCCGGTCTCCC
DNA 2: TGGTGGCTACGACGGGATT
B24: AGAACGA (DNA:RNA)
RNA: B1 RNA with C28A, G29C, U30G, U31A
DNA 1: CAATCTGAATTCCGGTCTCCC
DNA 2: TGGTGGCTACGACGGGATT
B25: GUCGGAC (DNA:RNA)
RNA: B6 RNA with C25G, U27C, U28G, C29G, C30A
DNA 1: CAATCTGAATTCCGGTCTCCC
DNA 2: TGGTGGCTACGACGGGATT
B26: CUCAAGC (DNA:RNA)
RNA: B6 RNA with U27C, U28A, C29A, C30G
DNA 1: CAATCTGAATTCCGGTCTCCC
DNA 2: TGGTGGCTACGACGGGATT
B27: CAGAAUA (DNA:RNA)
RNA: B1 RNA with A25C, G26A, A27G, C28A, G29A, U31A
DNA 1: CAATCTGAATTCCGGTCTCCC
DNA 2: TGGTGGCTACGACGGGATT
B28: UUCGUAA (DNA:RNA)
RNA: B6 RNA with C25U, U27C, U28G, C29U, C30A, C31A
DNA 1: CAATCTGAATTCCGGTCTCCC
DNA 2: TGGTGGCTACGACGGGATT
B29: GCGCUGG (DNA:RNA)
RNA: B1 RNA with A25G, G26C, A27G, G29U, U30G, U31G
DNA 1: CAATCTGAATTCCGGTCTCCC
DNA 2: TGGTGGCTACGACGGGATT
B30: GAUUGGC (DNA:RNA)
RNA: B6 RNA with C25G, U26A, C29G, C30G
DNA 1: CAATCTGAATTCCGGTCTCCC
DNA 2: TGGTGGCTACGACGGGATT
B31: CAAGCGG (DNA:RNA)
RNA: B6 RNA with U26A, U27A, U28G, C30G, C31G
DNA 1: CAATCTGAATTCCGGTCTCCC
DNA 2: TGGTGGCTACGACGGGATT

Residue numbers refer to the chain shown, from its start. Some of the results follow.

The target in the experiment is T1, RBFOX1 RRM RbFoxmut (Fox-RRM*). The experiment is described as follows: EMSA; HiTS-Eq, 1 nM pool, 10 min; buffer printed only for the single-RNA assays: 10 mM Tris pH 7.5, 150 mM NaCl, 3.4 mM EDTA, 0.001% NP-40, 30 C. Conditions: tags: His6 N-terminal (pET28a); label: 5' 32P. The essentials: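 Purified RbFox RRM (wild type or mutant) was equilibrated for 10 min in 50 µL with 1 nM of a 5′-radiolabelled pool of RNA with 7 randomized nucleotides, its flanks annealed to DNA oligonucleotides, across increasing protein concentrations. Free RNA was separated by 8% native PAGE, excised, reverse-transcribed, PCR-barcoded and sequenced on an Illumina HiSeq 2500. Relative association constants came from read-count changes of each variant against the control reaction, normalised to the cognate motif.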
(In EMSA bound probe runs differently from free probe, usually more slowly.)
B1: the binding signal was 0.082 KA relative to UGCAUGU. For B2, the binding signal was 0.171 KA relative to UGCAUGU. Turning to B3, the binding signal is 0.126 KA relative to UGCAUGU. As for B4, the binding signal was 0.143 KA relative to UGCAUGU.

With B5, the binding signal is 0.152 KA relative to UGCAUGU. In the case of B6 it was 0.0424 KA relative to UGCAUGU; in that of B7, 0.102 KA relative to UGCAUGU. For the molecule B8, the binding signal was 0.0489 KA relative to UGCAUGU. Turning to B9, the binding signal is 0.0803 KA relative to UGCAUGU. In the case of B10 it was 0.108 KA relative to UGCAUGU; in that of B11, 0.0722 KA relative to UGCAUGU; in that of B12, 0.103 KA relative to UGCAUGU. The result for B13 reads 0.0851 KA relative to UGCAUGU; that for B14, 0.142 KA relative to UGCAUGU; that for B15, 0.0971 KA relative to UGCAUGU. With B16, the binding signal is 0.101 KA relative to UGCAUGU. The result for B17 reads 0.106 KA relative to UGCAUGU. As to B18, the binding signal is 0.0794 KA relative to UGCAUGU.

With B19, the binding signal is 0.134 KA relative to UGCAUGU. In the case of B20 it was 0.13 KA relative to UGCAUGU. For the molecule B21, the binding signal was 0.0695 KA relative to UGCAUGU. In the case of B22 it was 0.135 KA relative to UGCAUGU; in that of B23, 0.117 KA relative to UGCAUGU. As to B24, the binding signal is 0.099 KA relative to UGCAUGU. In the case of B25 it was 0.0746 KA relative to UGCAUGU; in that of B26, 0.0702 KA relative to UGCAUGU; in that of B27, 0.105 KA relative to UGCAUGU. As for B28, the binding signal was 0.115 KA relative to UGCAUGU.

With B29, the binding signal was 0.111 KA relative to UGCAUGU. Regarding B30, the binding signal was 0.145 KA relative to UGCAUGU. As to B31, the binding signal was 0.0716 KA relative to UGCAUGU.
